Measured values taken from PubChem BioAssay AID1030 (National Center for Advancing Translational Sciences (NCATS), 2008).
Out of some 220,000 compounds screened, about 16,000 (7.3%) were called active. This list was built around the results that the source calls inconclusive (neither active nor inactive); the mix of calls is not that of the screen. The call rests on the fitted dose curve; in most records, active means well fitted inhibition curve with a large enough effect (not every such curve was filed as active); inconclusive means small, poorly fitted or top-dose-only effect, or another doubt; inactive means no such curve, though single readings can be large or run the other way. A potency beside an inconclusive call is a rough fit, not a confirmed value.

biological target: Aldehyde dehydrogenase 1A1 (Homo sapiens) (UniProt P00352); assay: qHTS Assay for Inhibitors of Aldehyde Dehydrogenase 1 (ALDH1A1); settings: Purified ALDH1A1, NADH fluorescence, propionaldehyde substrate; series mostly up to 75.3 µM; activity, negative = inhibition: at the top concentration;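 on activity, negative = inhibition: plate controls were no enzyme wells and a reference inhibitor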
Potency means the concentration at half of the fitted maximal effect; tags describe the fitted curve by direction and shape.

UniProt P00352, sequence (P00352 whole entry, looked up): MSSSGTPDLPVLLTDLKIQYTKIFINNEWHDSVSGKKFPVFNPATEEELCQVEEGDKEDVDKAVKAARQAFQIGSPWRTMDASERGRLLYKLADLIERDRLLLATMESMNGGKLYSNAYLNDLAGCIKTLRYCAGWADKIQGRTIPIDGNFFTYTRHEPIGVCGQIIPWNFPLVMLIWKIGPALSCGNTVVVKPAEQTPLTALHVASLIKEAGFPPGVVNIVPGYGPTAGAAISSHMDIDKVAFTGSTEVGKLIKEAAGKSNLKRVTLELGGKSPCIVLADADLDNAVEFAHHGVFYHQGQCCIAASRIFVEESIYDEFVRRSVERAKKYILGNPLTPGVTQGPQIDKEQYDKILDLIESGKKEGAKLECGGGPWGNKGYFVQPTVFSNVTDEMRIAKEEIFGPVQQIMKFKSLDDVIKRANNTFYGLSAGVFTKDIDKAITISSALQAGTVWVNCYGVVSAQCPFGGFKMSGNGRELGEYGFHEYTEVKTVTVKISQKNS

Potency, inactive:
CCOc1ccc(C(=O)OCCN(CC)CC)cc1

Potency, active:
CNc1oc(Cc2ccccc2)nc1S(=O)(=O)c1ccccc1 25.1 µM
Nn1c(=O)c2ccccc2n2c(SCc3ccccc3)nnc12 14.1 µM
N#Cc1cccc(-c2nc3cnc(Oc4cccc(Cl)c4)nc3n(C3CC3)c2=O)c1 25.1 µM
CN(C)c1ccc(C(=S)N2CCN(c3ccc([N+](=O)[O-])cc3)CC2)cc1 1 µM
COc1ccc(C(=O)c2ccc(N3CCN(C4CC(=O)NC4=O)CC3)cc2)cc1F (stereo not drawn) 8.91 µM
CCN(Cc1ccccc1)c1ccc(/C=N/NS(=O)(=O)c2cccc([N+](=O)[O-])c2)cc1 6.31 µM
CCOc1ccc(CCN2C(=O)C3C4C=CC(C4)C3C2=O)cc1OCC (stereo not drawn) 3.55 µM
O=C(N/N=C/c1ccc(N2CCCCC2)o1)c1ccccc1 25.1 µM
Cc1ccc(S(=O)(=O)N2CCN(C(=O)N3CCOCC3)C2c2ccc(N(C)C)cc2)cc1 (stereo not drawn) 0.631 µM
CC(C)(C)n1nnnc1C(c1cccc(C#N)c1)N1CCN2CCCC2C1 (stereo not drawn) 20 µM
CN(C)c1ccc(S(=O)(=O)NCC(=O)OCC(=O)Nc2cccc(Cl)c2)cc1[N+](=O)[O-] 7.94 µM
COc1ccc(CCNC(=S)Nc2cccc3ccccc23)cc1 22.4 µM
O=C(O)CCC(=O)Nc1ccc(N2CCCCCC2)cc1 11.2 µM
CN(C)c1ccc(NC(=O)CSc2nnc(-c3cccs3)n2Cc2ccco2)cc1 17.8 µM

Potency, inconclusive:
CCCc1cc(=O)oc2c3c(c4c(c12)OC(C)(C)C=C4)OC(C)C(C)C3O (stereo not drawn) 28.2 µM [inhibitor, single point]
O=C(O)C1CC=CCC1C(=O)Nc1ccc2c(c1)OCCO2 (stereo not drawn) 39.8 µM [inhibitor, single point]
Cc1ccc(C(=O)CSc2nsc(C)c2C#N)cc1 28.2 µM [inhibitor, single point]
CCOc1ccc(NC(=O)C2CC(=O)N(CC)C(=Nc3ccc4c(c3)OCO4)S2)cc1 (stereo not drawn) 17.8 µM [inhibitor, partial curve]
COc1ccc(COc2ccccc2C(=O)Nc2ccccn2)cc1[N+](=O)[O-] 0.0398 µM [inhibitor, full curve, poor fit]
COC(=O)C1C2C=CC3(CN(Cc4ccco4)C(=O)C13)O2 (stereo not drawn) 39.8 µM [inhibitor, single point]
COc1ccc2[nH]c3ccccc3c2c1 25.1 µM [inhibitor, partial curve]
COc1cc(-c2nc3ccc4ccccc4c3c3c2CCC3)cc(OC)c1OC 28.2 µM [inhibitor, partial curve]
COc1cc(C=O)c(Cl)cc1OCC(N)=O 39.8 µM [inhibitor, single point]
CCOC(=O)c1c(NC(=O)/C=C/c2ccc(C)o2)sc(C)c1C 39.8 µM [inhibitor, single point]
COc1ccccc1NC(=O)N1CCCC(c2nc3c(nnn3Cc3ccc(C)cc3)c(=O)[nH]2)C1 (stereo not drawn) 35.5 µM [inhibitor, partial curve, poor fit]
CN(C)c1ccc(C2SCCN2C(=O)c2ccc([N+](=O)[O-])cc2)cc1 (stereo not drawn) 35.5 µM [inhibitor, single point]
CCOC(=O)c1c(-c2ccc(OC)cc2)cn2ccccc12 31.6 µM [inhibitor, partial curve]
O=C1CN(C(=O)COC(=O)c2cccc(OCc3ccccc3)c2)c2ccccc2N1 39.8 µM [inhibitor, single point]
COC(=O)c1cc(C(=O)OC)cc(S(=O)(=O)Nc2ccc(Cl)c(N)c2)c1 15.8 µM [inhibitor, partial curve]
CCCOC(=O)C1=C(C)NC2=C(C(=O)C(C(=O)OC)C(C)C2)C1c1ccc(N(CC)CC)cc1 (stereo not drawn) 39.8 µM [inhibitor, single point]
Nc1ccc(Br)c2cccnc12 39.8 µM [inhibitor, single point]
O=C(N[C@@H](Cc1ccccc1)C(=O)OCc1ccccc1)c1nc[nH]c1C(=O)NC(c1ccccc1)c1ccccc1 0.0501 µM [inhibitor, full curve, poor fit]
N#Cc1cn(Cc2cccc(Cl)c2)c2ccccc12 39.8 µM [inhibitor, single point]
C/C(C/C(C)=C1/SC(=S)NC1=O)=C1\SC(=S)NC1=O 3.16 µM [inhibitor, partial curve]
COc1ccc2c(c1OC)C(=O)N1C(C(=O)O)Cc3c([nH]c4ccccc34)C21 (stereo not drawn) 31.6 µM [inhibitor, partial curve]
O=C(O)CSCNC(=O)CC12CC3CC(CC(C3)C1)C2 39.8 µM [inhibitor, single point]
Cc1ccc(C(=O)NC(=S)NNC(=O)CCN2CCOCC2)cc1 22.4 µM [inhibitor, single point]
CC(C)(C)c1ccc(S(=O)(=O)NCC(=O)Nc2sc3c(c2C(N)=O)CCCC3)cc1 28.2 µM [inhibitor, single point]
COc1ccc(NC(=O)CCS(=O)(=O)c2cccc3nonc23)cc1 35.5 µM [inhibitor, single point]
COc1ccc(S(=O)(=O)N(C(=O)C(C)C)c2ccc3oc(=O)sc3c2)cc1 2.82 µM [inhibitor, full curve]
O=C(/C=C/c1c(Cl)cccc1Cl)N1CCN(c2ncccn2)CC1 39.8 µM [inhibitor, single point]
C=CCn1c(SCC(=O)N2CCN(C(=O)c3ccco3)CC2)nc2sc(CC)cc2c1=O 25.1 µM [inhibitor, partial curve]
CCOc1ccc2[nH]c(=O)c(CN(CCO)C(=O)c3ccc(OC)c(OC)c3)cc2c1 37.7 µM [inhibitor, single point]
CC1=NN(c2ccccc2)C(=O)C1C(=O)c1ccc([N+](=O)[O-])cc1 (stereo not drawn) 23.8 µM [inhibitor, single point]
C=CCSc1nc(-c2ccccc2)c2cc(Cl)ccc2n1 23.8 µM [inhibitor, partial curve]
CC1CCN(C(=O)CCCNC(=O)Cn2cnc3sc4c(c3c2=O)CCCC4)CC1 3.16 µM [inhibitor, full curve]
S=c1[nH]nc(-c2ccc(Br)cc2)n1Cc1ccco1 3.98 µM [inhibitor, full curve]
O=C(CC1CCCCC1)N1CCN(c2ccccn2)CC1 28.2 µM [inhibitor, single point]
Cc1cc(N2CCN(Cc3nc(-c4ccc(F)cc4)oc3C)CC2)cc(C)n1 25.1 µM [inhibitor, single point]
c1ccc(Nc2nc(N3CCOCC3)c3ccccc3n2)cc1 8.91 µM [inhibitor, single point]
CCCn1c(=O)c2ccccc2n2c(SCc3nc4ccccc4s3)nnc12 12.6 µM [inhibitor, single point]
C=CCOc1cccc(C2/C(=C(/O)c3ccccc3)C(=O)C(=O)N2CCN2CCOCC2)c1 (stereo not drawn) 39.8 µM [inhibitor, single point]
O=C(Nc1ccc(-c2nc3ccccc3s2)cc1)c1cc(-n2cnnc2)ccc1Cl 39.8 µM [inhibitor, single point]
COCCn1c(SCC(=O)Nc2cc(Cl)ccc2OC)nc2c(c1=O)SC(C)C2 (stereo not drawn) 35.5 µM [inhibitor, single point]
C=CCn1c(NC(=O)c2ccco2)c(S(=O)(=O)c2ccccc2)c2nc3ccccc3nc21 28.2 µM [inhibitor, partial curve]

activity, negative = inhibition, inactive:
O=C(NCc1cccs1)C1CCC(=O)N1C1CCCCC1 (stereo not drawn) -0.762%
COc1cccc(C2C(C(=O)c3sc(C)nc3C)=C(O)C(=O)N2CCN(C)C)c1OC (stereo not drawn) 11.2%
CN(C(=O)c1ccc(-c2nn(C)c(=O)c3ccccc23)cc1)c1ccccc1 -3.75%
CCOC(=O)c1ccc(NC(=O)Nc2ccc(S(N)(=O)=O)cc2)cc1 5.74%
O=C1OCCC1Sc1nnc(-c2ccccc2Cl)n1Cc1ccccc1 (stereo not drawn) 0.276%
COc1ccc(-c2ccc(SCC(=O)NCc3ccco3)nn2)cc1 1.98%
CCOC(=O)C1(CC)NC(c2cccc(F)c2)C2C(=O)N(CC)C(=O)C21 (stereo not drawn) 5.45%
COc1ccccc1OCc1ccc(C(=O)N2CCN(C)CC2)o1 0.393%
CCCCc1ccc(NC2=NCC(=O)N2CCc2ccccc2)cc1 11.1%
N=c1c2ccccc2nnn1-c1cccc(C(F)(F)F)c1 1.74%
COc1ccc(C(O)(c2ccccc2OC)C(CN2CCOCC2)c2ccccc2)cc1 (stereo not drawn) 6.72%
C=CCn1c(-c2ccc([N+](=O)[O-])cc2)n[nH]c1=S -9%
CSc1ccc(CNCCN2CCOCC2)cc1 -2.14%
NC(C(=O)O)(c1ccc(P(=O)(O)O)cc1)C1CC1 (stereo not drawn) 7.01%
O=C(COC(=O)C1(c2ccccc2F)CCCC1)NCc1ccc2c(c1)OCO2 -10.6%
O=C(CSc1nnc(-c2ccncc2)n1Cc1ccco1)Nc1cccc(O)c1 4.12%
Cc1cccc(NC(=O)CN2C(=O)S/C(=C\c3ccccn3)C2=O)c1 4.25%
